The record followed here is the antibiotic and cytotoxicity screens of Wong et al. (2023).

This is one part of the list.

One experiment relates to HSkMC. Description: cytotoxicity call (relative viability < 0.9). The settings on record: 10 µM.
A further experiment deals with HepG2. Description: cytotoxicity call (relative viability < 0.9). The conditions noted are these: 10 µM.
The subject of another experiment is S. aureus RN4220. Kind of experiment: growth inhibition call (relative growth <= 0.2). The conditions noted are these: 50 µM.

Take `C[C@@H]1CN([C@H](C)CO)C(=O)Cc2cc(NS(=O)(=O)c3ccc(Cl)cc3)ccc2O[C@H]1CN(C)Cc1ccc(-c2ccccc2)cc1`: the cytotoxicity call in the experiment on HSkMC is “active”. Moreover, the cytotoxicity call in the experiment with HepG2 is “inactive”. The growth inhibition call in the experiment on S. aureus RN4220 is “inactive”.

Turning to `O=S(=O)(NCc1ccco1)N1CCOCC1`, the cytotoxicity call in the experiment with HSkMC and with HepG2 was “inactive” each time. Besides, in the experiment with S. aureus RN4220, the growth inhibition call was “inactive”.

In the case of `C[C@H]1CN([C@@H](C)CO)C(=O)CCCn2cc(nn2)CO[C@@H]1CN(C)Cc1ccc2c(c1)OCCN2C`, the cytotoxicity call in the experiment with HSkMC and in the experiment on HepG2 was “inactive” each time. Also, the growth inhibition call with S. aureus RN4220 is “inactive”.

Consider `C[C@@H]1CN([C@H](C)CO)C(=O)c2cc(C3=CCCCC3)cnc2O[C@@H]1CN(C)C(=O)CN1CCOCC1`, for which the cytotoxicity call with HSkMC and in the experiment with HepG2 was “inactive” in each case. In the experiment on S. aureus RN4220, the growth inhibition call is “inactive”.

In the case of `C[C@H](CO)N1C[C@H](C)[C@H](CN(C)S(=O)(=O)c2ccccc2)OCCCC[C@H](C)Oc2ccc(NS(=O)(=O)c3ccc(Cl)cc3)cc2C1=O`, the cytotoxicity call in the experiment with HSkMC and with HepG2 was “inactive” throughout. Besides, in the experiment with S. aureus RN4220, the growth inhibition call is “inactive”.

Consider `O=C(N[C@H]1CC[C@H](CCn2cc(C3(O)CCCC3)nn2)O[C@H]1CO)C1CCOCC1`, for which the cytotoxicity call in the experiment on HSkMC and with HepG2 was “inactive” each time. Besides, in the experiment with S. aureus RN4220, the growth inhibition call was “inactive”.

Regarding `O=C(O)CCC(=O)c1ccc(-c2ccccc2)cc1`, the cytotoxicity call in the experiment on HSkMC and in the experiment on HepG2 was “inactive” in each case. Besides, the growth inhibition call in the experiment on S. aureus RN4220 was “inactive”.

Regarding `CC(=O)Nc1cc(Cl)ccc1C`, the cytotoxicity call with HSkMC and in the experiment with HepG2 was “inactive” each time. In the experiment on S. aureus RN4220, the growth inhibition call was “inactive”.

`COc1ccc(NC(=O)N(C)C[C@@H]2Oc3ccc(NC(=O)Nc4ccc(C(F)(F)F)cc4)cc3C(=O)N([C@@H](C)CO)C[C@@H]2C)cc1`: the cytotoxicity call in the experiment on HSkMC and with HepG2 was “inactive” each time. Moreover, the growth inhibition call with S. aureus RN4220 is “inactive”.

Take `N#CCCS(=O)(=O)c1ccc(N)cc1`: the cytotoxicity call in the experiment with HSkMC and in the experiment on HepG2 was “inactive” in each case. Further, the growth inhibition call in the experiment on S. aureus RN4220 is “inactive”.

On to `COc1ccc(S(=O)(=O)N(C)C[C@@H]2Oc3c(NC(=O)C4CC4)cccc3C(=O)N([C@@H](C)CO)C[C@H]2C)cc1`, for which the cytotoxicity call with HSkMC and in the experiment on HepG2 was “inactive” each time. Besides, the growth inhibition call in the experiment with S. aureus RN4220 is “inactive”.

In the case of `C[C@@H]1CN([C@@H](C)CO)C(=O)c2cccc(NS(=O)(=O)c3cn(C)cn3)c2O[C@@H]1CN(C)Cc1ccc(C(=O)O)cc1`, the cytotoxicity call in the experiment with HSkMC and in the experiment on HepG2 was “inactive” throughout. Also, the growth inhibition call in the experiment on S. aureus RN4220 was “inactive”.

For the compound `C[C@@H]1CN([C@@H](C)CO)C(=O)c2cccc(NC(=O)c3ccc(-c4nccs4)cc3)c2O[C@@H]1CN(C)S(=O)(=O)c1cn(C)cn1`, the cytotoxicity call with HSkMC and in the experiment with HepG2 was “inactive” throughout. The growth inhibition call with S. aureus RN4220 is “inactive”.

As to `C[C@@H]1CN([C@@H](C)CO)C(=O)Cc2cc(NC(=O)c3ccncc3)ccc2O[C@H]1CN(C)C(=O)Nc1ccc2c(c1)OCO2`, the cytotoxicity call in the experiment with HSkMC and in the experiment on HepG2 was “inactive” each time. In the experiment with S. aureus RN4220, the growth inhibition call is “inactive”.

Consider `CC=C(C(=CC)c1ccc(O)cc1)c1ccc(O)cc1`, for which the cytotoxicity call in the experiment on HSkMC and with HepG2 was “inactive” each time. Also, the growth inhibition call in the experiment on S. aureus RN4220 is “active”.

Consider `Cc1noc(C)c1NC(=O)Nc1ccc2c(c1)C(=O)N([C@@H](C)CO)C[C@@H](C)[C@@H](CN(C)C(=O)Nc1ccccc1)OCCCC[C@H](C)O2`, for which the cytotoxicity call with HSkMC and in the experiment on HepG2 was “inactive” in each case. Further, the growth inhibition call in the experiment on S. aureus RN4220 is “inactive”.

Turning to `O=C(Cc1ccccn1)NCC[C@H]1CC[C@H](NC(=O)CN2CCOCC2)[C@@H](CO)O1`, the cytotoxicity call in the experiment with HSkMC and with HepG2 was “inactive” throughout. In addition, the growth inhibition call with S. aureus RN4220 is “inactive”.

In the case of `Cc1ccc(S(=O)(=O)Nc2ccc3c(c2)C(=O)N([C@@H](C)CO)C[C@@H](C)[C@@H](CN(C)S(=O)(=O)c2ccc(Cl)cc2)OCCCC[C@@H](C)O3)cc1`, the cytotoxicity call with HSkMC and in the experiment on HepG2 was “inactive” each time. Besides, the growth inhibition call in the experiment with S. aureus RN4220 is “inactive”.

As for `COCCCNC(=O)[C@@]1(C)c2ccccc2C(=O)N(Cc2cc(F)cc(C(F)(F)F)c2)[C@H]1c1ccc(CO)cc1`, the cytotoxicity call in the experiment with HSkMC and in the experiment on HepG2 was “inactive” throughout. Further, in the experiment with S. aureus RN4220, the growth inhibition call is “inactive”.

For `COc1ccc(NC(=O)Nc2ccc3c(c2)C(=O)N([C@H](C)CO)C[C@@H](C)[C@H](CN(C)C(=O)Nc2c(C)noc2C)OCCCC[C@@H](C)O3)cc1`, the cytotoxicity call in the experiment with HSkMC and in the experiment with HepG2 was “inactive” each time. Besides, the growth inhibition call in the experiment with S. aureus RN4220 is “inactive”.

For `C[C@@H]1CN([C@H](C)CO)S(=O)(=O)c2ccc(C#Cc3cccnc3)cc2O[C@@H]1CN(C)C(=O)Nc1ccc2c(c1)OCO2`, the cytotoxicity call in the experiment with HSkMC and in the experiment with HepG2 was “inactive” throughout. The growth inhibition call with S. aureus RN4220 is “inactive”.

With `Cc1ccc(S(=O)(=O)Nc2ccc3c(c2)C(=O)N([C@@H](C)CO)C[C@H](C)[C@@H](CN(C)C(=O)CCC(F)(F)F)OCCCC[C@H](C)O3)cc1`, the cytotoxicity call in the experiment with HSkMC and in the experiment with HepG2 was “inactive” each time. Besides, the growth inhibition call in the experiment on S. aureus RN4220 is “inactive”.

Take `O=C(N[C@@H]1C=C[C@H](CC(=O)N2CCOCC2)O[C@@H]1CO)c1ccccn1`: the cytotoxicity call with HSkMC and in the experiment on HepG2 was “inactive” throughout. Also, the growth inhibition call in the experiment with S. aureus RN4220 was “inactive”.

With `C[C@@H]1O[C@@H](O[C@@H]2[C@@H](O)[C@H](C)O[C@@H](OC[C@H]3O[C@@H](Oc4c(-c5ccc(O)cc5)oc5cc(O)cc(O)c5c4=O)[C@H](O)[C@@H](O)[C@H]3O)[C@@H]2O)[C@H](O)[C@H](O)[C@H]1O`, the cytotoxicity call with HSkMC and in the experiment with HepG2 was “inactive” each time. Moreover, in the experiment on S. aureus RN4220, the growth inhibition call was “inactive”.

In the case of `C[C@@H]1CCCCO[C@H](CN(C)S(C)(=O)=O)[C@@H](C)CN([C@H](C)CO)C(=O)c2cc(NC(=O)CCCN(C)C)ccc2O1`, the cytotoxicity call with HSkMC and with HepG2 was “inactive” throughout. In the experiment on S. aureus RN4220, the growth inhibition call was “inactive”.

`Cc1ccc(S(=O)(=O)Nc2ccc3c(c2)C(=O)N([C@H](C)CO)C[C@@H](C)[C@@H](CN(C)S(=O)(=O)c2ccc(C)cc2)OCCCC[C@H](C)O3)cc1`: the cytotoxicity call with HSkMC and with HepG2 was “inactive” throughout. Further, the growth inhibition call in the experiment with S. aureus RN4220 is “inactive”.

For `C[C@@H]1CCCCO[C@H](CN(C)S(=O)(=O)c2ccc(F)cc2)[C@@H](C)CN([C@H](C)CO)C(=O)c2cc(NC(=O)C3CCCCC3)ccc2O1`, the cytotoxicity call with HSkMC and in the experiment on HepG2 was “inactive” throughout. Moreover, the growth inhibition call in the experiment on S. aureus RN4220 is “inactive”.

`C[C@H](CO)N1C[C@H](C)[C@@H](CN(C)C(=O)Nc2cccc3ccccc23)Oc2ccc(NS(=O)(=O)c3ccc(F)cc3)cc2CC1=O`: the cytotoxicity call in the experiment on HSkMC (human skeletal muscle cells) and in the experiment on HepG2 was “inactive” throughout. Also, the growth inhibition call with S. aureus RN4220 is “inactive”.
